In the supplement of paper PMC12217912:
The list shows a part of the results. The full chains were built here from the parent and the listed change. Values near 0.05 are background.

B1: TEV protease; numbered along this chain (parent)
chain: MGESLFKGPRDYNPISSSICHLTNESDGHTTSLYGIGFGPFIITNKHLFRRNNGTLVVQSLHGVFKVKDTTTLQQHLVDGRDMIIIRMPKDFPPFPQKLKFREPQREERICLVTTNFQTKSMSSMVSDTSCTFPSGDGIFWKHWIQTKDGQCGSPLVSTRDGFIVGIHSASNFTNTNNYFTSVPKNFMELLTNQEAQQWVSGWRLNADSVLWGGHKVFMVKPEEPFQPVKEATQL

Variants of: B1
Assay: raw area under fraction-flipped curve 0-4 h after induction (AUC4h, not background-subtracted), DNA-recorder readout of cleavage of the substrate (dimensionless); higher = more cleavage of the substrate by the protease variant
Conditions: temperature: 34 °C; time window: 0-4 h after rhamnose induction
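Further: Bxb1 expression induced with 0.2% (w/v) L-rhamnose at OD600 near 0.5, cultures sampled hourly, flipped fraction per protease–substrate barcode pair counted by paired-end Illumina sequencing.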

Row | Variant | area with substrate ENLYFQC | area with substrate ENLYFQD | area with substrate ENLYFQE | area with substrate ENLYFQF | area with substrate ENLYFQG | area with substrate ENLYFQI | area with substrate ENLYFQK | area with substrate ENLYFQL | area with substrate ENLYFQM | area with substrate ENLYFQN | area with substrate ENLYFQP | area with substrate ENLYFQR | area with substrate ENLYFQS | area with substrate ENLYFQT | area with substrate ENLYFQV | area with substrate ENLYFQW | area with substrate ENLYFQY | area with substrate ENLYFQH | area with substrate ENLYFQQ
1 | M219R | 0.0618 | 0.0709 | 0.06 | 0.0504 | 0.0711 | 0.0588 | 0.0585 | 0.0611 | 0.0766 | 0.066 | 0.0489 | 0.0561 | 0.0762 | 0.0539 | 0.0662 | 0.0524 | 0.0532 | – | –
2 | M219D | 0.0977 | – | – | 0.0256 | 0.0949 | 0.0598 | – | 0.0622 | 0.0615 | 0.0561 | – | 0.0579 | 0.0945 | 0.0595 | 0.0611 | 0.0565 | – | 0.0565 | –
3 | E224P | 0.109 | 0.0791 | – | – | 0.0769 | 0.0551 | – | 0.0663 | 0.087 | – | 0.0665 | 0.066 | 0.0951 | 0.0593 | 0.0671 | 0.085 | – | – | –
4 | V157N | 0.0521 | 0.0509 | – | 0.0603 | 0.0487 | 0.0259 | 0.0795 | 0.0406 | 0.0572 | 0.0451 | 0.056 | 0.0553 | 0.0541 | 0.0417 | 0.0503 | 0.0571 | 0.0419 | 0.054 | –
5 | V113C | 0.12 | 0.0723 | – | 0.0681 | – | 0.0579 | 0.0758 | 0.0755 | – | 0.0797 | 0.0718 | 0.0612 | 0.106 | 0.0674 | – | 0.0559 | 0.0872 | 0.0713 | –
6 | F41N | 0.112 | – | 0.0598 | 0.0845 | 0.0844 | 0.0756 | 0.0576 | 0.0553 | 0.0701 | 0.0696 | 0.0603 | 0.0653 | 0.0855 | 0.0544 | – | – | 0.0637 | 0.0579 | 0.0788
7 | V200E | 0.0487 | – | 0.035 | – | – | 0.0559 | – | 0.0502 | – | – | – | 0.0657 | 0.0641 | 0.0664 | – | – | – | – | –
8 | H76E | 0.0938 | 0.0648 | – | – | 0.0802 | 0.0505 | 0.0622 | – | 0.0775 | 0.0653 | 0.0543 | 0.0384 | 0.0793 | – | 0.0536 | 0.0685 | 0.0636 | 0.0649 | 0.0464
9 | T72P | 0.0755 | 0.0623 | – | 0.0588 | 0.0687 | 0.0472 | 0.0675 | 0.0613 | 0.0732 | 0.0652 | 0.0473 | – | 0.0787 | 0.0366 | 0.0568 | – | 0.0714 | 0.0805 | 0.0525
10 | R10L | 0.109 | – | – | – | – | – | – | 0.0619 | 0.0797 | – | – | 0.0574 | 0.107 | 0.0724 | – | 0.0691 | – | 0.149 | –
11 | T23Q | 0.129 | 0.0706 | – | – | 0.0941 | 0.0666 | – | 0.0333 | 0.0868 | – | 0.0639 | 0.0696 | 0.0935 | 0.064 | 0.0641 | – | 0.0609 | 0.0791 | –
12 | K148T | 0.0718 | – | – | – | 0.104 | 0.0684 | 0.0581 | 0.0626 | – | – | – | 0.0528 | 0.0839 | – | 0.0705 | – | 0.0699 | 0.0788 | –
13 | F218G | 0.0836 | – | – | – | 0.0688 | – | – | 0.0515 | – | – | 0.0747 | 0.0564 | 0.088 | 0.0167 | 0.0619 | 0.056 | – | 0.0625 | –
14 | Q118G | 0.133 | 0.0905 | – | 0.0677 | 0.0976 | 0.0667 | 0.0566 | – | 0.112 | 0.0821 | – | 0.0545 | 0.109 | 0.0771 | 0.0689 | – | 0.0807 | 0.0815 | –
15 | L5Q | 0.131 | – | – | – | – | – | 0.0702 | 0.0696 | 0.0972 | 0.06 | – | 0.0635 | 0.118 | 0.0692 | 0.0495 | 0.0758 | – | 0.0839 | –
16 | G202N | 0.0808 | 0.0669 | – | 0.0669 | – | 0.0591 | 0.0504 | 0.054 | 0.0685 | 0.0788 | 0.061 | 0.068 | 0.0793 | 0.0613 | – | – | – | 0.0532 | –
17 | V57K | 0.132 | 0.0785 | – | 0.0463 | 0.105 | 0.056 | 0.0438 | 0.058 | – | – | – | 0.0642 | 0.108 | 0.0644 | – | 0.0758 | 0.0712 | – | –
18 | V57T | 0.116 | 0.0722 | – | 0.0876 | 0.0983 | 0.063 | – | 0.0502 | 0.129 | 0.0501 | – | 0.0486 | 0.103 | 0.0723 | – | 0.0612 | 0.0676 | 0.0874 | –
19 | V78A | 0.0965 | – | 0.0613 | 0.0614 | – | 0.053 | – | 0.0555 | 0.0755 | – | 0.0513 | 0.0546 | 0.0705 | 0.0526 | – | 0.0574 | 0.0471 | 0.0582 | –
20 | R81I | 0.138 | 0.0716 | – | – | – | 0.0496 | 0.0585 | 0.0675 | 0.0771 | 0.0711 | 0.0686 | – | 0.115 | – | 0.07 | 0.0504 | 0.0775 | 0.0898 | –
21 | S121E | 0.119 | 0.0445 | – | 0.0924 | – | 0.0632 | – | – | 0.0624 | – | – | 0.0674 | 0.101 | – | – | – | – | 0.0042 | –
22 | S121Y | 0.117 | – | 0.067 | – | – | – | 0.0533 | 0.0559 | 0.0926 | – | 0.0339 | 0.0748 | 0.104 | 0.0502 | – | 0.0733 | 0.0688 | 0.0669 | –
23 | G39D | 0.0229 | 0.0585 | – | – | 0.0451 | 0.0419 | – | 0.0438 | 0.043 | 0.046 | – | 0.0391 | 0.0452 | 0.0451 | – | 0.0548 | 0.0426 | 0.0451 | 0.0461
24 | I86F | 0.11 | – | 0.0416 | 0.0661 | 0.0851 | 0.0546 | – | 0.0479 | – | 0.0641 | 0.0488 | 0.0488 | 0.0927 | – | – | 0.0811 | 0.071 | 0.0751 | –
25 | Q227M | 0.142 | – | – | – | 0.0801 | 0.0524 | 0.0588 | 0.0549 | 0.0781 | 0.0909 | – | 0.0534 | 0.102 | – | 0.0308 | 0.0737 | 0.07 | 0.0734 | 0.0921
26 | Q227E | 0.115 | – | – | 0.0943 | – | 0.0643 | 0.072 | 0.0572 | 0.0907 | 0.0862 | 0.0584 | – | 0.102 | 0.0689 | 0.0715 | 0.0591 | 0.0431 | – | 0.0742
27 | P222M | 0.109 | 0.0569 | – | – | 0.103 | – | 0.057 | 0.065 | – | 0.0789 | 0.0496 | 0.0538 | 0.0969 | – | 0.0586 | – | 0.0683 | 0.0524 | 0.0618
